± gives the standard deviation of the averaged measurements. Some of the results follow.
system: PfAP2-I AP2 domain 3 (GST-tagged); test: gcPBM binding intensity (ln(normalized median fluorescence intensity)); higher = stronger DNA binding
Summary of the method: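 DNA-binding domains from P. falciparum, fused to GST and produced in E. coli, were put on an Agilent 4 × 180k double-stranded probe array for 1 h in 1× PBS holding 1% milk, 0.2 mg/ml BSA, 0.5% salmon testes DNA and 0.03% Triton X-100. Probes were primer-extended, 36 bp long and drawn from intergenic genomic regions, with negative controls included. After Alexa488 anti-GST antibody detection and a 488 nm scan, binding intensity was set as the highest Masliner-normalised natural-log median intensity across replicate spots of either probe orientation.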

Row | Sequence | gcPBM binding intensity (ln)
1 | ATGAAAATATTTAAAAGTACAGAAATATAAAACCTT [XGTACX_site403] | 7.88 ± 0.52
2 | TATTTTATACACTTGCTAAAACATTAACACATATGT [CACACA_negctrl_site1818] | 7.9 ± 0.55
3 | AAAATATTTATCATTTGTACTTAGATGTAAACTTGA [XGTACX_site1778] | 7.5 ± 0.33
4 | TATAAAATATAAATAAATAAATAAATATATATATAT [TGCATGCA_negctrl_site448] | 9.28 ± 0.26
5 | TCATATATTATATATTGTACAAAATAATAAGTATTT [XGTACX_site3987] | 7.64 ± 0.42
6 | ATAATTGTTTAAAGGTGTACAATACATATATTTTAA [XGTACX_site3648] | 7.91 ± 0.33
7 | ATTATACACCCGCGCACACACAACAAAAAAAAAAAA [CACACA_site5871] | 9.04 ± 0.15
8 | ATGCAATTATATAGTAGTACAAATTTATAAATATAC [XGTACX_site4869] | 8.12 ± 0.41
9 | ATATATATATATATGGGTACGTAAAAATATAATAAA [XGTACX_site4036] | 9.36 ± 0.23
10 | TTTTCTTTCTTTCAAACACACATTAATTTTATTCAT [CACACA_site2734] | 7.61 ± 0.38
11 | GTTGTTATATAAAATTGTACATAAAAAACAAAATAT [XGTACX_site5313] | 8.09 ± 0.5
12 | ATAAATGGCTATAGCATATTGTATATGTGATTATAA [CACACA_negctrl_site948] | 7.7 ± 0.55
13 | TCCATGCAGAAACACACACACAAAAAAAAATTCTTT [CACACA_site4099] | 7.83 ± 0.48
14 | AAAAAAATTACATATCCATTTTAACATAATAAATAG [GTGCAC_negctrl_site618] | 7.56 ± 0.45
15 | TTACGAATAAAACAGTGTACATTGAATTTCTATGAG [XGTACX_site4771] | 7.62 ± 0.53
16 | ATCTATGGGTAGTATACACACTGTATATTTAGGAAT [CACACA_site5569] | 7.78 ± 0.68
17 | ATTCTATTCTCCTTCACACACAAAAATATTTCATCA [CACACA_site2360] | 8.21 ± 0.59
18 | TTTTTGCAAAAAGAAATAATTTTATTTTAGTTCGGA [CACACA_negctrl_site1718] | 7.41 ± 0.53
19 | ACTAATAACAAAAGCTTGCACTTTTTTTTTCCTAAT | 8.5 ± 0.79
20 | TATAATTTTCTTAGTAGTACATTTTAAATCTACTAC [XGTACX_site2621] | 7.64 ± 0.35
21 | TGTATCCACATATGTACACACATATATCTGTATATG [CACACA_site5668] | 8.09 ± 0.42
22 | TATGTACAAATATGTACACACACACCGATATATATA [CACACA_site4487] | 8.29 ± 0.73

Row | Sequence | gcPBM binding intensity (ln)
23 | ATATAAGATTACAAAAATTATGTGTAAATATTTAAT [XGTACX_negctrl_site448] | 7.86 ± 0.52
24 | AAAAAAAAAAAAAAAAGTACAAAAATTATATTAAGA [XGTACX_site4255] | 8.53 ± 0.3
25 | AATTATATATAACGTAGTACATATTATAAACCACGT [XGTACX_site8816] | 8.28 ± 0.34
26 | ACCTATATAAATTATACACACAAATATAAATATATA [CACACA_site2843] | 7.83 ± 0.38
27 | ATATTCCTTTAATATTGTACTATTTTTTTCCTTATA [XGTACX_site8659] | 7.83 ± 0.58
28 | TGTCATAAAACCGTTTGTACATATTAATAGACACCT [XGTACX_site4520] | 7.76 ± 0.46
29 | TTGTTATTCCACCGTTGTACAGTTATATACATACAC [XGTACX_site8296] | 8.8 ± 0.25
30 | TATAATAATAATGATAGTACGTATGAGTTCAAGAAA [XGTACX_site4918] | 7.92 ± 0.49
31 | ATATTAAGAATATATACACACATAAGTATTGTATAT [CACACA_site6110] | 7.29 ± 0.5
32 | ATAAAATAAAATAAATGTACACGAAAAAAAATATTT [XGTACX_site3747] | 8.49 ± 0.43
33 | TATTCGTGCAATAGTAGTACACTTATAAATTATTCT [XGTACX_site4899] | 10.7 ± 0.61
34 | TTACTTGTTTATTTTATTTTTTTTTTTTTTTTGTTA [TGCATGCA_negctrl_site266] | 7.24 ± 0.68
35 | AGTGAGAAATACATAATAATACATTATGTGCATATT [XGTACX_negctrl_site247] | 8.8 ± 0.014
36 | GTACACATATATATATATATATATATATATATATTA [CACACA_negctrl_site1580] | 8.51 ± 0.33
37 | AAGAATATTTTTTTCTGTACATATAATTTATATACG [XGTACX_site5801] | 7.64 ± 0.44
38 | TTCATTTACCCTTATTAACACACAAAATATAATACG [CACACA_site8821] | 8 ± 0.34
39 | TGTATATTATAAGATAGTACATATATATAATATATA [XGTACX_site1297] | 7.68 ± 0.35
40 | ATCTTATATATACGTTGTACTACAGGATATGTCATA [XGTACX_site5734] | 8.03 ± 0.37
41 | ATAAATATCATATATATACACACGTAATACATAATA [CACACA_site4001] | 7.7 ± 0.57
42 | AAGGAGATAATTTATTGTACATATAATAAATGAACA [XGTACX_site6252] | 7.62 ± 0.41
43 | TCTTACAAAAAAAAAAAAAAATAAAATAAAATATAT [CACACA_negctrl_site1575] | 7.42 ± 0.48
44 | TTAATATTATGTTAAAGTACTTTATATATATATAAT [XGTACX_site2646] | 7.7 ± 0.4

Row | Sequence | gcPBM binding intensity (ln)
45 | ACATACATATATATACGTACATATATATTTATATAT [XGTACX_site5799] | 7.92 ± 0.4
46 | ATTCTAAATATCAGTGCACACATTTCTACGCAAAGT [CACACA_site474] | 10.62 ± 0.042
47 | TAATTACAAAAACATACACACAAAAAAAAAAAAAAA [CACACA_site3782] | 8.01 ± 0.61
48 | AGCAAATACAAACACACACACACATATACATATATA [CACACA_site3497] | 8 ± 0.5
49 | GTTGGTAGATTTATTTGTACATATGTATCATATTAT [XGTACX_site7135] | 7.92 ± 0.79
50 | AAAAATTTATTTTGTTTTTTAAGATTTTTTTTTTTT [CACACA_negctrl_site1210] | 7.16 ± 0.35
51 | TATTAATTTATATCAACACACAAAATCAATATACTT [CACACA_site1757] | 7.61 ± 0.6
52 | ATATAGATCAGACACACACACATGTTTTAAAACTAT [CACACA_site6186] | 8.04 ± 0.79
53 | AAGGAATAATATAAAACACACACATAAATATAAATA [CACACA_site9115] | 7.82 ± 0.5
54 | CGAAATATTATGTACGCACACACATTTTTAATATAT [CACACA_site3852] | 8.34 ± 0.34
55 | TTCTATATTTTAGCTGATAATATTATGAGCTTCACT [XGTACX_negctrl_site427] | 7.54 ± 0.65
56 | AACATAAATATATATAGTACATATATATATATTCAA [XGTACX_site7287] | 7.55 ± 0.28
57 | TCTTTAATGAACAAATGTACAAGAACAATACCCGCA [XGTACX_site2047] | 7.99 ± 0.56
58 | CTTTAACCTTTTTATTGTACTTTTAATATTTTAAAA [XGTACX_site4457] | 8.18 ± 0.33
59 | AATATATGGTATAATTGTACAAAAAAAAAAAAAAAA [XGTACX_site1476] | 8.13 ± 0.6
60 | GTGAAATGGAAAAAAAGTACAGATTACATAAGTATT [XGTACX_site6355] | 7.83 ± 0.62
61 | TATTTTAATTATAAATTTAAAAAAAAAAAGAAAAAA [CACACA_negctrl_site1674] | 7.5 ± 0.45
62 | TGCTTATATATACGTGCACACATATATATAAGATAT [CACACA_site8516] | 10.9 ± 0.11
63 | CTGGAGGATGAAAAAAGTACAAAAGGAGGAAATGTA [XGTACX_site8846] | 8.07 ± 0.47
64 | AGCTCATGCAGGTGTACACAAAAAGAAAAAAAATAA [CACACA_site4828] | 8.76 ± 0.18
65 | AAAACAAATATATTAACACACAAACATATAAACAAA [CACACA_site6052] | 7.97 ± 0.47
66 | ATAAATAATGTTGACACACACAATAATCTTATTATG [CACACA_site3593] | 7.73 ± 0.52

Row | Sequence | gcPBM binding intensity (ln)
67 | CCCCATATAATGAACACACACACTCCTCATAATTAA [CACACA_site628] | 8.47 ± 0.71
68 | ATGTCCTCAATGTTTACACACTCTTTTATATAAGTT [CACACA_site1460] | 8.5 ± 0.41
69 | ATTATTATTAATAGTACACACTATGGCATTTCAATA [CACACA_site5388] | 8 ± 0.29
70 | TATATAACTGTCTTCACACACACATATAAATAAATA [CACACA_site7317] | 7.96 ± 0.42
71 | TATTTCACAACTTGTCGTACATTAATTGTATTATTT [XGTACX_site997] | 8.2 ± 0.44
72 | ATCTTTCATCTACCAAGTACAAATTACTTTTTTTTT [XGTACX_site7001] | 8.04 ± 0.64
73 | TTAGGTGTATATAATTGTACATTTTGGAAATTATAC [XGTACX_site5492] | 7.7 ± 0.54
74 | TCTTATTTAAAAATAGCACACATTATGTATATATAT [CACACA_site2822] | 8.39 ± 0.67
75 | AGCTCGGAAAAATTAGCATGCAAAAAAAAAAAAAAA [TGCATGCA_site658] | 8.13 ± 0.73
76 | TGAAACCATAAAGAATGTACACAGCGGTATAAGTTA [XGTACX_site674] | 7.91 ± 0.8
77 | AATAAAATAAGAAGCACACAAATATTATATATAAAA [CACACA_site3980] | 7.87 ± 0.62
78 | TTTTAAATAATACATACATGCATATATACACATATA [TGCATGCA_site8] | 8.16 ± 0.83
79 | TTAATATATTTAAATATATATAAAATATATAATATG [CACACA_negctrl_site880] | 7.34 ± 0.37
80 | TTCTTTTCTTCTACATGTACAAATATTATATATATA [XGTACX_site2996] | 8.46 ± 0.46
81 | TTTTGGAATTTTAGCTGTACTTTTCCTATTTTGTAT [XGTACX_site7679] | 7.96 ± 0.36
82 | TTGTGTTTTACATATACATGCAAATTTTTTTTTTTA [TGCATGCA_site303] | 7.56 ± 0.57
83 | TAAATCATTTCATGGCATTTACACAAAATTTTTTAA [CACACA_negctrl_site1260] | 7.6 ± 0.68
84 | TATATATAATATTATACACACATATATGCATAATAT [CACACA_site54] | 8.57 ± 0.73
85 | TATTTATTTATATAAACACACATAAATATAAATATA [CACACA_site6653] | 7.62 ± 0.35
86 | TATAGCATAAATATGTGTACATATTTATATGATATT [XGTACX_site6333] | 7.63 ± 0.3
87 | ATATATATTTAAAAAAGTACAGAAGAAAATAACCCA [XGTACX_site642] | 8.18 ± 0.31
88 | TATTACACATATTATACACACATATATTATATATAT [CACACA_site4951] | 8.34 ± 0.28

From the supplement of paper PMC11417369
